# Whole data set: some 33,000 sequences, median “E-score (-0.5 to 0.5)” near -0.035, cut for the highest 2% near 0.34. This is one part of the list.
# Biological target: T1, Mot3 (UniProt P54785)
# T1 sequence: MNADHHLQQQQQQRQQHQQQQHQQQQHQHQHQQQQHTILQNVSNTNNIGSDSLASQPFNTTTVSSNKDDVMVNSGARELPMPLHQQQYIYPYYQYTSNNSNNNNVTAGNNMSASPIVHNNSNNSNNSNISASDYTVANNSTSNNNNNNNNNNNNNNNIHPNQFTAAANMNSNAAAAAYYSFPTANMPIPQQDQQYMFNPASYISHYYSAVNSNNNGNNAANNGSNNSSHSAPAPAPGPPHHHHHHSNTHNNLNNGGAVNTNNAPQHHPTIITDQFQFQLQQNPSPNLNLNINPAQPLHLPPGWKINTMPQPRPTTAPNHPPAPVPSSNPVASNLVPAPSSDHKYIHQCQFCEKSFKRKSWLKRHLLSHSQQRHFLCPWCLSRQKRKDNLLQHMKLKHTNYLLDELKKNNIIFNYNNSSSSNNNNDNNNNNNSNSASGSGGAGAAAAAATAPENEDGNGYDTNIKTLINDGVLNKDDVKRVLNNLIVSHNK
# Experiment: PBM E-score (8-mer binding enrichment) (E-score (-0.5 to 0.5)); higher = stronger / more preferred TF binding; most listed sequences are background and not binding sites
# Conditions: protein concentration: 200 nM; construct: GST-full length
# Outline: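 Universal all-10-mer Agilent arrays, double-stranded by primer extension on fresh or once-stripped slides, were probed with about 100-200 nM GST-tagged yeast transcription factors made by PURExpress. Fluorescent anti-GST detected bound protein, and masliner normalised the scans. E-scores from the Universal PBM Analysis Suite were given to each ungapped eight-base word pooled with its reverse complement.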
row,Sequence,PBM E-score
1,AAAAGGCA,0.478
2,AAAGTGCT,-0.175
3,CTGACAAA,0.162
4,CAACCACA,-0.0496
5,AAAGGATT,0.0704
6,CGTCCCGC,-0.207
7,AACGTTCG,-0.0896
8,ACTCGTGA,-0.0793
9,ATGTGAGC,0.0368
10,TCAGGTCA,-0.159
11,AAGCTTTG,-0.0872
12,AAGATAGC,-0.0616
13,GCATAAAA,0.115
14,AAGCACCT,0.0273
15,CCGGGTGA,-0.25
16,AAGTGCGT,-0.0268
17,CTCGGCAG,-0.0936
18,ATATTGGC,-0.0257
19,CACCTGCG,0.0771
20,AACAGAAT,0.0192
21,ACGGAGCG,-0.0608
22,GTATTCAA,0.151
23,AACTTCCG,-0.091
24,ATCCGCTG,-0.201

row,Sequence,PBM E-score
1,ACCGTCCC,-0.187
2,CTTCTAGA,-0.181
3,GAAAGAGA,0.00602
4,ATGCAGTA,0.101
5,ACTTTAAT,0.0262
6,ACTGAGAG,-0.0806
7,AGCGATTG,-0.223
8,TGCCAGAA,-0.0627
9,GAGAAGAA,-0.083
10,GTGGCATA,-0.119
11,GGGTCTGA,-0.212
12,CCTACATA,0.205
13,AGTCGAAA,-0.015
14,AGGTTCTG,0.0713
15,TACTTGCA,0.0506
16,ACGGTACG,-0.0434
17,ACTTCTAA,-0.121
18,GCCCGTCC,-0.182
19,CTAAATCA,-0.0576
20,AGAAATAG,0.082
21,CATTTTGG,0.0099
22,GATACACA,0.14
23,CTCTCCGA,-0.0638
24,ACACTGCT,-0.0116

row,Sequence,PBM E-score
1,GTACCCGA,-0.143
2,GGAACTCC,0.052
3,ACTGGACT,-0.176
4,CACCTCGG,-0.108
5,TACATGAA,0.375
6,CACAGACG,-0.0437
7,GTCCTGTA,0.155
8,GACATAAA,0.165
9,GTATCCTA,0.0863
10,AGGACATA,0.0303
11,GACAGTCA,-0.104
12,TAGTTTCA,0.025
13,GTAAATAA,0.277
14,ATATGCCG,-0.0771
15,AGTAGCTC,-0.0996
16,CGTGACTC,-0.136
17,GATATCCA,-0.0173
18,ATCAAAAA,0.0159
19,CCCTCCAC,-0.13
20,CAGCAGGG,-0.0212
21,CGTCACAC,-0.139
22,TTCTAGAA,-0.0416
23,ACAACTGG,-0.229
24,ACGGGTCC,-0.177

row,Sequence,PBM E-score
1,ATTACCAG,-0.0076
2,ACATCTCA,0.131
3,ACCGCGCG,-0.217
4,TATCCTGA,-0.0141
5,ATAAGACG,-0.0189
6,CAGACGGC,-0.224
7,GCACAGGC,0.323
8,GACGTTGA,0.0556
9,AGCAGGCG,0.148
10,CGGGCCGC,-0.307
11,AACATTAG,0.115
12,TACAAAAA,0.196
13,AGGAACAT,0.422
14,TATGAGAA,0.0231
15,AGAAACTA,-0.0831
16,CTCAGCTA,-0.268
17,ACGCATGA,0.074
18,TGAGCACA,0.0359
19,CAATTCAC,0.202
20,CCTCACGC,-0.00499
21,ACGTACCT,0.292
22,CCCCGACA,-0.0337
